# Values joined by “and” are separate entries in the source; they are usually repeats but may differ in a detail not shown here. Equal entries are not always repeated. The inconclusive results got no clear call from the source; some entries with a clear call stand among them for comparison. For some assays here: Potencies of inconclusive entries are doubtful fits and often do not repeat. Active and inactive are the calls of the source. Unless noted, calls come from the whole dose curve; as a rule, active = well fitted curve in the direction sought with a large enough effect; inconclusive = small, poorly fitted or top-dose-only effect, or another doubt; inactive = no such curve, though single readings can be large; an effect the other way counts as inactive or inconclusive.
# How the values were obtained:
# [1] = qHTS assay for small molecule agonists of the antioxidant response element (ARE) signaling pathway measured by Nrf2-dependant transcriptional activity - cell viability counter screen (AID 720653; active = well fitted curve in the direction sought with a large enough effect in the repeat runs; inconclusive = weak or mixed curves; inactive = no such curve, though single readings can be large; an effect the other way counts as inactive or inconclusive; note: % is set by controls: 0 for no effect and ±100 for the full control effect); details: ARE-bla HepG2 viability, CellTiter-Glo ATP luminescence, 16 h; max response: stronger effect = lower value
# Outline: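 ARE-bla HepG2 cells treated with compounds for 16 h at 37C; this counter screen measures viability as intracellular ATP by CellTiter-Glo luminescence after 30 min at room temperature.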
# [2] = target: Voltage-gated inwardly rectifying potassium channel KCNH2 (Homo sapiens) (UniProt Q12809); assay: qHTS Assay for Small Molecule Inhibitors of the Human hERG Channel Activity (AID 588834); details: U2OS BacMam hERG, FluxOR thallium flux fluorescence;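 note: potency is the fitted concentration of half-maximal effect; lower thallium flux fluorescence means stronger hERG block; nearly all actives have a fitted effect of over 50% in size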
# UniProt Q12809, sequence (Q12809 whole entry, looked up): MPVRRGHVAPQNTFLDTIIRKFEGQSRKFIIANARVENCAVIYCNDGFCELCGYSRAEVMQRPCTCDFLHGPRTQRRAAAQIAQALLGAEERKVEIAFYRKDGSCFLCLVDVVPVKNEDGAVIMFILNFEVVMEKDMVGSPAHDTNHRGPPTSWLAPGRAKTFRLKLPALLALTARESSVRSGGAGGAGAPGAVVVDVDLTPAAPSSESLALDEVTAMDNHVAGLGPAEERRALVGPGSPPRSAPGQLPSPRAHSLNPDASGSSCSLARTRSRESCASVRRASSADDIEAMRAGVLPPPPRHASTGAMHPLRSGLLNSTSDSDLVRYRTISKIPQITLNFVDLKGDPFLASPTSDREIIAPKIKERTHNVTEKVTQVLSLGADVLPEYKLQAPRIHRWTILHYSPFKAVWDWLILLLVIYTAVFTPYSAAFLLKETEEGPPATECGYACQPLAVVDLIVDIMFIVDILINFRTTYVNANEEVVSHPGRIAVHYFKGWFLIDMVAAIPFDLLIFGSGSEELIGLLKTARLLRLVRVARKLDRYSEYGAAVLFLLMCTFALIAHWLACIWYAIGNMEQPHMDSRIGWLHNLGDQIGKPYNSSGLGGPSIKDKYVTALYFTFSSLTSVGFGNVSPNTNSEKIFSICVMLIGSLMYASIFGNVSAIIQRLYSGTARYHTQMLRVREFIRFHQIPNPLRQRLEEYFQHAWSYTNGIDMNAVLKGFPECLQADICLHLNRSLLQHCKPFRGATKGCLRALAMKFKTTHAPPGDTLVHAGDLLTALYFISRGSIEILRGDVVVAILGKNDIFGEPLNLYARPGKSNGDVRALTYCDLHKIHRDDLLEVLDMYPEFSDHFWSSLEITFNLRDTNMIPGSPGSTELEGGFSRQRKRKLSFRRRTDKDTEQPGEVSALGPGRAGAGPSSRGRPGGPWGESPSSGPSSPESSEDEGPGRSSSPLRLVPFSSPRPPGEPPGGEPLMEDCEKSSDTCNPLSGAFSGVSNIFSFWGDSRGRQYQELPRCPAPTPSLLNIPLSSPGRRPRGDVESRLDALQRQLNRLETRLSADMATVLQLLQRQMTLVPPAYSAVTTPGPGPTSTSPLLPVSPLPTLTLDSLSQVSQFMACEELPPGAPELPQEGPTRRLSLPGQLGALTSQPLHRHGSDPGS
# Outline: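 Concentration-response qHTS measuring drop in thallium-sensitive dye signal. U2OS cells carrying BacMam hERG; compound exposure ~10 min, then stimulation buffer and 2 min read at 1 sec intervals.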
# [3] = qHTS Assay for Lipid Storage Modulators (AID 1519; calls by dose curve; note: % is set by controls: 0 for no effect and ±100 for the full control effect); details: Drosophila S3 cells, BODIPY lipid droplet/cell ratio, laser cytometry, cells loaded with oleic acid; activity change, negative = inhibition: at 57.5 µM (top of the series)
# Outline: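 Cells seeded at 5,000 per well were treated with compounds over a concentration series and loaded with oleic acid (400 uM, as added). Lipid droplet fluorescence (488 nm excitation, 500-530 nm channel) was read by laser-scanning cytometry and normalized to 20 uM Triacsin C.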
# [4] = qHTS for differential inhibitors of proliferation of Plasmodium falciparum line D10 (AID 1877);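 note: potency is the fitted concentration of half-maximal effect; parasites grown with compound for 72 h before DNA staining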
# [5] = Nrf2 qHTS screen for inhibitors: Validation (AID 493153; active = well fitted inhibition curve with a large enough effect in the main read-out, with a control signal flat, not every such curve was filed as active; inconclusive = small, poorly fitted or top-dose-only effect, or effect the other way, or a change in a side signal; inactive = no such curve, though single readings can be large or run the other way; note: potency is the fitted concentration of half-maximal effect)
# Outline: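 A549 cells carrying an ARE-driven firefly luciferase reporter, in 5% FBS OPTI-MEM, were treated with compounds in concentration-response for 18-24 h at 37°C. Viability was read by CellTiter-Fluor fluorescence, then Nrf2 activity by luciferase luminescence.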
# [6] = tested on: Dd2; assay: qHTS profiling for inhibitors of Plasmodium falciparum proliferation (AID 504749); note: nearly all actives have a fitted effect of over 60% in size; note: potency is the fitted concentration of half-maximal effect; details: P. falciparum in erythrocytes, SYBR Green DNA, 72 h; series mostly up to 28.7 µM
# Outline: (§1)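 Readout was DNA-dye fluorescence from lysed cultures, ex 485/em 535 nm. Parasitized red cells had grown 72 h with compound; data scaled between 0.29 uM artemisinin and DMSO wells and corrected using vehicle-only plates.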
# [7] = tested on: JCK; assay: as above; details: P. falciparum in erythrocytes, SYBR Green DNA, 72 h; series mostly up to 28.7 µM
# Outline: as §1
# [8] = target: Glucocorticoid receptor (Homo sapiens) (UniProt P04150); assay: GR-GFP Redistribution (AID 450;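 active = compounds whose dose series gives a full or clear partial fitted curve of increased nuclear translocation; inconclusive = weak partial curve or effect only at the top dose; inactive = no dose-dependent translocation response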; note: potency is the fitted concentration of half-maximal effect); details: U2OS GR-GFP nuclear translocation, laser cytometry, 2 h
# UniProt P04150, sequence (P04150 whole entry, looked up): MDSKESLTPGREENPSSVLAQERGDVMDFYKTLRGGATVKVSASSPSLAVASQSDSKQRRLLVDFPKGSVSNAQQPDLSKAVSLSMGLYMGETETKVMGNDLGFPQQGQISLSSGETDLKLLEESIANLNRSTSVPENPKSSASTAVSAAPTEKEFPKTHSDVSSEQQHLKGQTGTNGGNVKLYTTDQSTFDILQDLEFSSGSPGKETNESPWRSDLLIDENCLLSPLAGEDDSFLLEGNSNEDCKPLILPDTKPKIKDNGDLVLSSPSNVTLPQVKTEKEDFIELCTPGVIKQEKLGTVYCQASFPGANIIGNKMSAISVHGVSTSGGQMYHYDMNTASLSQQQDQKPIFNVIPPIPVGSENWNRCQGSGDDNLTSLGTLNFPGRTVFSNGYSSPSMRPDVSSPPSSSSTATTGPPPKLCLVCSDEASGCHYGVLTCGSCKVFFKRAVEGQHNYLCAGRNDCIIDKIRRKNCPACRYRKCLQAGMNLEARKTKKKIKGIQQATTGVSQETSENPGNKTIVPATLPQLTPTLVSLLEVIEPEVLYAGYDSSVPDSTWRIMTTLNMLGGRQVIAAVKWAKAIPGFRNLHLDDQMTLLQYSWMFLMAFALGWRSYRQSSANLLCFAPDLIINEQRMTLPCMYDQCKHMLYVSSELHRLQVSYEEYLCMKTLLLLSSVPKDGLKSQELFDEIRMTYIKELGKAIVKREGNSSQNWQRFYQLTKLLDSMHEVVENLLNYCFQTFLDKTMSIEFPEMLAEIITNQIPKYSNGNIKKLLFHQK
# [9] = S16 Schwann cell PMP22 intronic element firefly luciferase assay (AID 624032); note: potency is the fitted concentration of half-maximal effect; nearly all actives have a fitted effect of over 30% in size
# Outline: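 Rat S16 Schwann cells stably carrying firefly luciferase driven by a PMP22 intronic element, in 10% FBS, treated 24 h at 37 C. ONE-Glo luminescence normalized to PTC124 control and DMSO (0%); curves classed by r2, magnitude and activity.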
# [10] = qHTS of pediatric cancer cell lines to identify multiple opportunities for drug repurposing: Confirmatory screen for A673 cells (AID 1347110); note: potency is the fitted concentration of half-maximal effect; nearly all actives have a fitted effect of over 65% in size
# Outline: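 Concentration-response curves came straight from titrations: 11 points (0.78 nM to 46 µM) for MIPE and several concentrations (0.59 nM to 46 µM) for NPC in primary, 11 points in follow-up. Readout: ATP luminescence at 48 h.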
# [11] = qHTS of pediatric cancer cell lines to identify multiple opportunities for drug repurposing: Confirmatory screen for SK-N-MC cells (AID 1347111);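 note: cells exposed to compound for 48 h before the readout; plate controls were DMSO for no effect and bortezomib for full effect; nearly all actives have a fitted effect of over 70% in size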
# Outline: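 SK-N-MC cells at 500-1,000 cells/well in growth media were pre-incubated 5 h, then exposed to compounds at 11-point dilutions for 48 h at 37 degrees C, 5% CO2. Viability was read as CellTiter-Glo luminescence.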
# [12] = tested on: CP262; assay: qHTS profiling for inhibitors of Plasmodium falciparum proliferation (AID 504749); note: nearly all actives have a fitted effect of over 60% in size; note: potency is the fitted concentration of half-maximal effect; details: P. falciparum in erythrocytes, SYBR Green DNA, 72 h; series mostly up to 28.7 µM
# Outline: as §1
# [13] = target: Cytochrome P450 1A2 (Homo sapiens) (UniProt P05177); assay: p450-cyp1a2 (AID 410; calls by dose curve; note: potency is the fitted concentration of half-maximal effect)
# UniProt P05177, sequence (P05177 whole entry, looked up): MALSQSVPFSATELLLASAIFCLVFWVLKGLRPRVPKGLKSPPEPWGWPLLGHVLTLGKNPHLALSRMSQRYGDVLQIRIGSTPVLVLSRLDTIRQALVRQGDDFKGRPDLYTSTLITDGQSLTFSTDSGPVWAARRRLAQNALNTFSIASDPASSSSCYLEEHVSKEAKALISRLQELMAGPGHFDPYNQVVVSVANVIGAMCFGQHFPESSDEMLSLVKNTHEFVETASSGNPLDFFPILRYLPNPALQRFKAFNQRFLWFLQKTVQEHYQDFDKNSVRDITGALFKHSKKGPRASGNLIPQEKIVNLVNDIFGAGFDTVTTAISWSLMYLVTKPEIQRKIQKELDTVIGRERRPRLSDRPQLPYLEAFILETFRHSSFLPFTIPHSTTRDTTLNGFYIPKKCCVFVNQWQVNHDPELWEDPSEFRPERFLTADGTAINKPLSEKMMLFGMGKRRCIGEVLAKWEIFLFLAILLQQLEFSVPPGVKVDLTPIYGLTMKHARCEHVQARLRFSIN
# Outline: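 Human CYP1A2 (20nM) demethylated Luciferin-ME at its Km (100uM) in 100mM KPO4. After 10 min compound preincubation, NADPH regeneration ran the reaction 60 min at room temperature. Luciferin was read by luminescence, normalized to 57 uM furafylline.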
# [14] = target: ATPase family AAA domain-containing protein 5 (Homo sapiens) (UniProt Q96QE3); assay: Validation screen for small molecules that inhibit ELG1-dependent DNA repair in human embryonic kidney (HEK293T) cells expressing luciferase-tagged ELG1 (AID 493107);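 note: cells co-treated with the DNA-damaging agent 5-fluorouridine alongside compound; % is set by controls: 0 for no effect and ±100 for the full control effect; inhibitors lower the ELG1-luciferase luminescence signal; nearly all actives have a fitted effect of over 70% in size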
# Outline: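 HEK293T cells expressing luciferase-tagged ELG1 were co-treated with 5-fluorouridine and compound or DMSO for 16 hr at 37 °C, 5% CO2. Luciferase activity was then read with ONE-Glo after 30 min at room temperature; suppressed signal indicates blocked ELG1 function.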
# [15] = target: Rap guanine nucleotide exchange factor 3 (Homo sapiens) (UniProt O95398); assay: Counterscreen qHTS for agonist of cAMP-regulated guanine nucleotide exchange factor 3 (EPAC1) (AID 1645889); details: EPAC1 Rap1B-BODIPY-GDP exchange, fluorescence; activation: at 154 µM (top of the series); note: potency is the fitted concentration of half-maximal effect; nearly all actives have a fitted effect of over 40% in size
# UniProt O95398, sequence (O95398 whole entry, looked up): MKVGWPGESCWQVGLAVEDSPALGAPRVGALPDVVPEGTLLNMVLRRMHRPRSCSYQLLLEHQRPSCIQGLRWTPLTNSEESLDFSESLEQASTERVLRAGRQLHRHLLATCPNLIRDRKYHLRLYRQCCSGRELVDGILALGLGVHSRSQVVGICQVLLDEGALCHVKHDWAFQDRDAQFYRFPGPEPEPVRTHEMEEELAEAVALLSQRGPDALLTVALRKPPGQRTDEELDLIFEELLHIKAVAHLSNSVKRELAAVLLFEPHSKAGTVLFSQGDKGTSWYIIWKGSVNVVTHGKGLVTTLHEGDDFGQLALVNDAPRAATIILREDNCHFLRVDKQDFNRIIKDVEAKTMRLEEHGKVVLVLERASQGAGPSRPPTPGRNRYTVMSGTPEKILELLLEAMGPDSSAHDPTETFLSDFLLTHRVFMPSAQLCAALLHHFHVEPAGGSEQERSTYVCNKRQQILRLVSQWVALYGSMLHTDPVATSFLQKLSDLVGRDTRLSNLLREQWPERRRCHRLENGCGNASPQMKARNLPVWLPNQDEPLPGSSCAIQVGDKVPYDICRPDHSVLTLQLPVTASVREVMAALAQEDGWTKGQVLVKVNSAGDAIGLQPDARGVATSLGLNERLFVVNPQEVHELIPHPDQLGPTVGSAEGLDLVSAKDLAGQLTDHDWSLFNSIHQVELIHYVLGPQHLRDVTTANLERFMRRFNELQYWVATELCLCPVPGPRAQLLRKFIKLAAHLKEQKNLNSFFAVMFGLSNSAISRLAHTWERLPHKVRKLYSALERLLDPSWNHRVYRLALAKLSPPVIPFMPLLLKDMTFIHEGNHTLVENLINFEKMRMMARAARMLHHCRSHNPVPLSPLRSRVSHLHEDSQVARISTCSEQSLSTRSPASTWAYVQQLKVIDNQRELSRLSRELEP
# Outline: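 Rap1B–BODIPY-GDP (250 nM) with 50 uM GDP; compounds pin-transferred to 9.74 nM–152 uM final (activator) or from 7.32 nM upwards (inhibitor). Fluorescence Ex/Em 480/540 nm read at 5 and 30 min, then after adding cAMP or buffer, at room temperature.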
# [16] = qHTS for differential inhibitors of proliferation of Plasmodium falciparum line 7G8 (AID 1815);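 note: potency is the fitted concentration of half-maximal effect; parasite growth measured after three days of incubation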
# [17] = Natriuretic polypeptide receptor (hNpr1) antagonism - Pilot counterscreen GloSensor control cell line (AID 1347045; calls by dose curve; note: potency is the fitted concentration of half-maximal effect)
# Outline: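 HEK293 cells carrying the GloSensor cGMP sensor (GIP/pGS-40F) were loaded with 2% GloSensor reagent for 2 h, exposed to compounds for 30 min, and then stimulated with 50 uM sodium nitroprusside for 20 min at room temperature.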
# [18] = target: Atrial natriuretic peptide receptor 2 (Homo sapiens) (UniProt P20594); assay: Natriuretic polypeptide receptor (hNpr2) antagonism - Pilot subtype selectivity assay (AID 1347050; calls by dose curve; note: % is set by controls: 0 for no effect and ±100 for the full control effect)
# UniProt P20594, sequence (P20594 whole entry, looked up): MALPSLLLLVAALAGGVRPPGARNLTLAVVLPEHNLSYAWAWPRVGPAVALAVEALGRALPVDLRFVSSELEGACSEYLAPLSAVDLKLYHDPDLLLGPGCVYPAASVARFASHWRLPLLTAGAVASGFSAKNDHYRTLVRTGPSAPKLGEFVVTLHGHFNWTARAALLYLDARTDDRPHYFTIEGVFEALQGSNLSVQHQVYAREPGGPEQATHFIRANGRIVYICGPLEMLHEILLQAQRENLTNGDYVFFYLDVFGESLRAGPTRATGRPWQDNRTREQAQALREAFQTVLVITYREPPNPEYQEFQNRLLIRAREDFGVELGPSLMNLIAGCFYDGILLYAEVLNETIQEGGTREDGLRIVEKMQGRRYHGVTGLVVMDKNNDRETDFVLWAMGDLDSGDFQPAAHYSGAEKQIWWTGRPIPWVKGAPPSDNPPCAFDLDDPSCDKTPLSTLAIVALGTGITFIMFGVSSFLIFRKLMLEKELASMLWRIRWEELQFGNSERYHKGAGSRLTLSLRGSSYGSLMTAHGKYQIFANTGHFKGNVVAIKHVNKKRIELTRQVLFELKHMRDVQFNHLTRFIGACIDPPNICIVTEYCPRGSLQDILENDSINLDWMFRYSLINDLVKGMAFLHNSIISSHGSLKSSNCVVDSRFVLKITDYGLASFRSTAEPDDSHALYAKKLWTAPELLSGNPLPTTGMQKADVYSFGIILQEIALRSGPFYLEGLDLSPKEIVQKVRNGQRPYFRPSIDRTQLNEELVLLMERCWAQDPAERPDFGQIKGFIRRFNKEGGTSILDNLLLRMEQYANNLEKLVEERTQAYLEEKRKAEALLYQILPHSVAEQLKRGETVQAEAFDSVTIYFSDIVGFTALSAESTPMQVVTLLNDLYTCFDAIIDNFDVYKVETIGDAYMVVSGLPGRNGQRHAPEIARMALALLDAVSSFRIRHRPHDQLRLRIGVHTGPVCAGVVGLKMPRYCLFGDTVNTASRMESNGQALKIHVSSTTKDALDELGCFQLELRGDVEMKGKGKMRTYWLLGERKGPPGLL
# Outline: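 HEK293 cells expressing hNpr2 and a GloSensor cGMP luciferase sensor, 1500/well, preloaded 2 h with 2% GloSensor reagent, compound 30 min, then 1 nM hNppC for 20 min. Antagonism from luminescence after versus baseline pre-read; LOPAC in 1:5 titrations.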
# [19] = Counterscreen qHTS for small molecule stabilizers of the endoplasmic reticulum resident proteome: GLuc-NoTag assay (AID 1508627); note: potency is the fitted concentration of half-maximal effect
# Outline: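 SH-SY5Y cells stably expressing constitutively secreted GLuc without SERCaMP tag, exposed to compound for 19 hr, then to 100 nM thapsigargin for 4 hr at 37C. Medium luciferase was read by coelenterazine luminescence without lysis.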
# [20] = Confirmatory qHTS for small molecule stabilizers of the endoplasmic reticulum resident proteome: Secreted ER Calcium Modulated Protein (SERCaMP) assay (AID 1508628); note: potency is the fitted concentration of half-maximal effect; nearly all actives have a fitted effect of over 40% in size
# Outline: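 We seeded SH-SY5Y-GLuc-SERCaMP cells, added compounds (three concentrations in the primary run, eleven up to 76.6 uM in confirmation), incubated 16 h, depleted ER calcium with thapsigargin, and read luciferase 4 h later.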
# Tags give direction and shape of the fitted curve.
compound,measurement,setting,value
CCCCC(CC)COC(=O)c1ccccc1O (stereo not given),max response,[1],inactive: -10.2%
C[C@@H](O)[C@H]1C(=O)N2C(C(=O)O)=C(SCCN=CN)C[C@H]12,Potency,[2],"inconclusive: 5.62 µM [inhibitor, partial curve, poor fit]"
NC(N)=NC(=O)Cc1c(Cl)cccc1Cl,"activity change, negative = inhibition",[3],inconclusive: 0.101%
same,Potency,[4],"inconclusive: 6.31 µM [inhibitor, partial curve]"
same,Potency,[5],"inconclusive: 29.1 µM [inhibitor, single point]"
same,Potency,[6],"inconclusive: 7.94 µM [inhibitor, partial curve]"
same,Potency,[7],"inconclusive: 12.6 µM [inhibitor, single point]"
C[C@]12CC[C@H]3[C@@H](CCC4=CC(=O)CC[C@@]43C)[C@@H]1CC[C@@H]2C(=O)CO,Potency,[8],active: 0.0356 µM
C=CCSCC1Nc2cc(Cl)c(S(N)(=O)=O)cc2S(=O)(=O)N1 (stereo not given),Potency,[9],"inconclusive: 32.2 µM [inhibitor, single point]"
CCN[C@@H]1C[C@H](N)[C@@H](OC2OC(CN)=CCC2N)[C@H](O)[C@H]1O[C@H]1OC[C@](C)(O)[C@H](NC)[C@H]1O (stereo not given in full),Potency,[10],"inconclusive: 0.127 µM [cytotoxic, partial curve, poor fit]"
same,"activity change, negative = cytotoxic",[11],inactive: -2.44% [at 0.556 µM]
Cc1cccc(C)c1NC(=O)CN1CCCCCC1,Potency,[12],inactive
N[C@@H](COP(=O)(O)O)C(=O)O,Potency,[13],inconclusive: 25.1 µM [decreasing]
same,Potency,[14],inactive
N#Cc1ccc(Nc2nc(-c3ccc(O)cc3O)cs2)cc1C(F)(F)F,Potency,[15],"inconclusive: 4.47 µM [activator, full curve, poor fit]"
c1cc(CN2CCCCC2)cc(OCCCNc2nc3ccccc3s2)c1,Potency,[16],active: 7.08 µM
same,Potency,[17],"inconclusive: 16.5 µM [inhibitor, single point]"
same,Potency,[18],inactive
same,Potency,[19],"inconclusive: 39.8 µM [inhibitor, partial curve]"
same,Potency,[20],"active: 12.6 µM and inconclusive: 20 µM [inhibitor, partial curve, poor fit]"

# From PubChem BioAssay (NCATS)
